According to PubChem BioAssay AID1745845 (National Center for Advancing Translational Sciences (NCATS), 2022):
Screen size: about 360,000 compounds; about 2,600 (0.72%) were called active. This list was built around the results that the source calls inconclusive (neither active nor inactive); the mix of calls is not that of the screen. Calls follow the shape of the dose curve; as a rule, active = well fitted inhibition curve with a large enough effect; inconclusive = small, poorly fitted or top-dose-only effect; inactive = no such curve, though single readings can be large or run the other way. Potencies beside an inconclusive call are fits to weak or partial responses and may not hold up.

test: Primary qHTS for Inhibitors of ATXN expression; settings: HEK-293 ATXN2-luciferase reporter, luminescence, 24 h; activity change, negative = inhibition: at 57 µM (top of the series); also: nearly all actives have a fitted effect of over 55% in size
Procedure, shortened: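 ATXN2-luciferase reporter cells (luciferase flanked by upstream and downstream ATXN2 gene portions) were treated 24 h at 37 °C with compounds at up to 57 uM. SteadyGlo luminescence gave expression; GF-AFC fluorescence gave viability.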
% is scaled to controls: 0 for no effect and ±100 for the full control effect; potency is read from the fitted curve at half-maximal effect; tags tell the direction and shape of the fitted curve.

Compound	activity change, negative = inhibition	Potency
COc1cc2cc(c1Cl)N(C)C(=O)CC(OC(=O)C(C)N(C)C(C)=O)C1(C)OC1C(C)C1CC(O)(NC(=O)O1)C(OC)C=CC=C(C)C2 (stereo unspecified)	inactive: -11.9%	
CCOC(=O)C1(CCCc2ccccc2)CCN(Cc2cn(CC)nc2C)CC1	inactive: -35.6%	
Cc1ccc2c(c1C)-c1c(ccc(C)c1C)C(=O)C2=O		inconclusive: 39.8 µM [inhibitor, partial curve, poor fit]
Cc1sc(NC(=O)CSc2nnc3scc(-c4ccccc4)n23)c(C#N)c1C		inconclusive: 8.91 µM [inhibitor, partial curve, poor fit]
Cc1ccccc1CS(=O)(=O)c1nnc([C@H](Cc2ccccc2)NC(=O)OC(C)(C)C)o1		inconclusive: 39.8 µM [inhibitor, single point]
C=CCC[C@@H](Cc1ccc(F)cc1)C(=O)OC[C@@H](Cc1c[nH]c2ccccc12)NC(=O)[C@@H](CC=C)CC(=O)NCCO		inconclusive: 39.8 µM [inhibitor, single point]
CCOC(=O)[C@]12CCC=C1N(CCC1=CCCCC1)C(=O)[C@H](CC(=O)NCCC(C)C)C2	inactive: -0.287%	
Cc1cccc(CN2C(=O)/C(=C\c3ccc(C(=O)NCCN4CCOCC4)cc3)Sc3ccccc32)c1		inconclusive: 39.8 µM [inhibitor, single point]
COc1ccc(N(CC(=O)N2CCN(c3cccc(OC)c3)CC2)S(=O)(=O)c2c(C)noc2C)cc1	inactive: -9.94%	
CCOC(=O)C1=C(CS(=O)(=O)c2ccc(C)c(C)c2)NC(=O)NC1c1ccccc1OCC (stereo unspecified)	inactive: -2.27%	
CC(C)c1cc(C(=O)N/N=C/c2ccoc2)c(O)c(C(C)C)c1		inconclusive: 28.2 µM [inhibitor, single point]
CCOc1ccccc1NC(=O)CSCC(=O)Nc1ccccc1		inconclusive: 7.08 µM [inhibitor, single point]
Cc1nnn(-c2nonc2N)c1C(=O)N/N=C/c1cccc2ccccc12		inconclusive: 0.844 µM [inhibitor, partial curve, poor fit]
CCCC(=O)c1ccc(OCc2cn(CC(=O)c3ccc(O)cc3)nn2)cc1		inconclusive: 3.98 µM [inhibitor, partial curve, poor fit]
CC(C)Cc1ccc(C(C)CC2=CCC(CN(C)C)C2=O)cc1 (stereo unspecified)		inconclusive: 31.6 µM [inhibitor, single point]
CN(Cc1ccccc1)C1=CC(=[N+]2CCCC2)CC(C)(C)C1		inconclusive: 3.55 µM [inhibitor, full curve, poor fit]
NC1(C(=O)N[C@@H](CCO)c2ccc(Cl)cc2)CCN(c2ncnc3[nH]ccc23)CC1		inconclusive: 30.6 µM [inhibitor, single point]
Cc1nc2ccccc2c2c1CC(C(C)(Cl)Br)O2 (stereo unspecified)		inconclusive: 1.26 µM [inhibitor, partial curve, poor fit]
CN(C(=O)C(C)(C)C)c1ccc(OCC(=O)N2CCc3ccccc3C2)cc1	inactive: -27.1%	
NS(=O)(=O)c1ccc(NC2=CC(=O)C(=O)c3ccccc32)cc1		inconclusive: 2.82 µM [inhibitor, partial curve, poor fit]
Cc1ccc(C)c(CN2C(=O)C(O)(c3c[nH]c4ccccc34)c3ccccc32)c1 (stereo unspecified)		inconclusive: 31.6 µM [inhibitor, single point]
CC1(Cc2ccc3c(c2)OCO3)C(=O)Nc2c(Cl)ccc(Cl)c21 (stereo unspecified)	inactive: -21.1%	

Compound	activity change, negative = inhibition	Potency
CCc1cc2c(Sc3nc4ccccc4s3)ncnc2s1		inconclusive: 3.16 µM [inhibitor, full curve]
C/C(=N/NC(=O)c1nnn(-c2nonc2N)c1COc1ccccc1)c1ccc(O)cc1		inconclusive: 20 µM [inhibitor, partial curve, poor fit]
CCN(CC)C(=O)C1CCCc2c1[nH]c1ccc(Cl)cc21 (stereo unspecified)	inactive: 14%	
CC(C)Nc1nc(Nc2ccc(Cl)cc2F)c2sccc2n1		inconclusive: 28.2 µM [inhibitor, single point]
COc1ccc(CCNC(=O)CNS(=O)(=O)c2ccc(F)c(Cl)c2)cc1OC	inactive: 10.1%	
COc1ccc(C(C(=O)NC2CCCCC2)N(C(=O)c2snc(C(N)=O)c2N)c2ccccc2OC)cc1 (stereo unspecified)		inconclusive: 35.5 µM [inhibitor, partial curve, poor fit]
Cc1csc2c(N3CCN(C(=O)Nc4ccc(Cl)c(Cl)c4)CC3)ncnc12		active: 20 µM
N#C/C(=N\Nc1cccc(Cl)c1)C(=O)c1ccccc1	inactive: -35.1%	
CC(Nc1nc(N2CCNCC2)nc2ccccc12)c1ccccc1 (stereo unspecified)		inconclusive: 9.47 µM [inhibitor, partial curve, poor fit]
CCCSc1nnc(NC(=O)CSc2nc3[nH]c(=O)cc(O)c3s2)s1	inactive: 2.4%	
C[C@]12CCC(=O)C=C1[C@H](O)C[C@@H]1[C@@H]2[C@@H](O)C[C@@]2(C)[C@H]1CC[C@]2(O)C(=O)CO	inactive: -9.38%	
Cc1onc(-c2c(F)cccc2Cl)c1C(=O)Nc1sc2c(c1C(N)=O)CCC2		inconclusive: 25.1 µM [inhibitor, single point]
CC(=O)Oc1ccc(N(C(C)=O)S(=O)(=O)c2ccc(C)cc2)c2ccccc12		active: 26.7 µM
CCS(=O)(=O)c1ccc(N=Nc2ccc(O)c3ncccc23)c(OC)c1		inconclusive: 20 µM [inhibitor, single point]
COc1ccccc1NC(=O)c1ccc(NC(=O)c2ccco2)cc1	inactive: -19.6%	
CCn1c2ccccc2c2cc(NC(=O)CNCc3ccccc3OC)ccc21		inconclusive: 11.2 µM [inhibitor, partial curve, poor fit]
O=C(NCCCN1CCN(c2cccc(Cl)c2)CC1)c1nnc(Cc2ccc(F)cc2Cl)o1		inconclusive: 39.8 µM [inhibitor, single point]
Cc1ccccc1NC1=C/C(=N\S(=O)(=O)c2cccs2)c2ccccc2C1=O		active: 7.94 µM
CCOc1ccc(-c2csc(/C(C#N)=C\c3ccc(O)c([N+](=O)[O-])c3)n2)cc1		inconclusive: 39.8 µM [inhibitor, single point]
COc1ccc(C(=S)N2CCN(c3cccc(Cl)c3)CC2)c(OC)c1		inconclusive: 12.6 µM [inhibitor, partial curve, poor fit]
CCOC(=O)c1c2c(n(-c3ccc(OC)cc3)c1C)C(=O)C(=O)c1ccccc1-2		active: 8.91 µM
Cc1oc(-c2cccc(Cl)c2)nc1CSCC(=O)O		inconclusive: 39.8 µM [inhibitor, single point]

Compound	activity change, negative = inhibition	Potency
Cn1c(-c2ccccc2)cnc1SCC(=O)N1CCCCC1		inconclusive: 10 µM [inhibitor, partial curve, poor fit]
COc1ccc(NC(=O)c2ccc(NC(=O)c3cccs3)cc2)cc1		inconclusive: 7.94 µM [inhibitor, full curve, poor fit]
O=S(=O)(Nc1ccc(C(O)(C(F)(F)F)C(F)(F)F)cc1)c1cccc2cccnc12		inconclusive: 31.6 µM [inhibitor, partial curve, poor fit]
CC1CCc2cc(F)ccc2N1C(=O)CSc1nnc2c(n1)[nH]c1ccc(F)cc12 (stereo unspecified)		inconclusive: 28.2 µM [inhibitor, single point]
COc1ccc(C(Cl)=C(c2ccc(OC)cc2)c2ccc(OC)cc2)cc1		inconclusive: 7.94 µM [inhibitor, partial curve, poor fit]
Nc1ccn(C2CO[C@H](CO)O2)c(=O)n1 (stereo partly specified)	inactive: -3.38%	
CCC(CO)Oc1cc(NCc2cccc(C(F)(F)F)c2)c2ncn(C(C)C)c2c1 (stereo unspecified)	inactive: -25.7%	
COc1ccc(CN2C(=O)c3ccccc3C(/C=N/OCc3ccc(Cl)cc3)C2=O)cc1 (stereo unspecified)		inconclusive: 31.6 µM [inhibitor, partial curve, poor fit]
Clc1cccc(-c2ccc(-c3nc4ccccn4c3NCc3ccccc3)cc2)c1	inactive: -24.3%	
Cc1cc(-c2ccccc2)nc(N/N=C/c2ccc(O)cc2O)n1		inconclusive: 17.8 µM [inhibitor, single point]
Cc1ccc2nc(N3CCC(C(=O)O)CC3)nc(-c3ccccc3)c2c1	inactive: 2.81%	
Cc1cccc(-c2nnc(SCCC(=O)O)o2)c1		active: 1.41 µM
CCOc1ccc2[nH]c(=S)sc2c1		inconclusive: 39.8 µM [inhibitor, single point]
CCOC1(OCC)C(c2ccc(Cl)cc2)C(C#N)(C#N)C1(OCC)OCC (stereo unspecified)		inconclusive: 39.8 µM [inhibitor, single point]
C=CCOc1c(Br)cc(/C=N/NC(=O)Cc2ccc(C(F)(F)F)cc2[N+](=O)[O-])cc1OC		inconclusive: 21.2 µM [inhibitor, partial curve, poor fit]
O=C(CC1(O)C(=O)Nc2cc(Cl)cc(Cl)c21)c1ccncc1 (stereo unspecified)		inconclusive: 28.2 µM [inhibitor, single point]
Cc1cc(C)n(-c2nc3ccccc3c(=O)n2OCC(=O)OCc2ccccc2)n1		inconclusive: 39.8 µM [inhibitor, single point]
CN(C)c1c([N+](=O)[O-])cc(N2C(=O)C=CC2=O)cc1[N+](=O)[O-]		active: 35.5 µM
O=[N+]([O-])c1ccc(C[n+]2cccc3ccc4cccnc4c32)cc1	inconclusive: -57.2% [inhibitor]	
Cc1ccc(OCC(=O)Nc2ccc(-c3nc4ccc(C)cc4o3)cc2)cc1	inactive: 16.7%	
Cc1cccc(C(=O)Nc2cccc(C(=O)OCc3cc(=O)n4nc(C5CC5)sc4n3)c2)c1	inactive: 5.82%	
CCCCOc1ccccc1NC(=O)Cn1c(-c2nonc2N)nc2ccccc21		inconclusive: 14.1 µM [inhibitor, partial curve, poor fit]
